Patent US8828401B2, “Cytotoxic peptides and antibody drug conjugates thereof” (Pfizer Inc., priority 2011, dated 2014)

Tests used:
[1] = system: N87 gastric xenografts; assay: N87 gastric xenografts with anti-Notch ADCs; format: in vivo, nude (Nu/Nu) female mice; details: for tumor volume (mm^3 ± SEM): Dose 5 mg/kg Q4dx4 iv
Protocol: (§1) Humanized anti-Notch antibodies, hu28 and hu75, and rat-human chimeric anti-Notch antibodies, ch28 and ch75, were conjugated to various linker-payload combinations and tested in 37622A1 non-small cell lung cancer (NSCLC), HCC2429 lung cancer, MDA-MB-468 breast cancer and N87 gastric cancer xenograft models. For each model described below the first dose was given on Day 0. The tumors were measured at least once a week and their volume was calculated with the formula: tumor volume (mm^3)=0.5×(tumor width^2)(tumor length). The mean tumor volumes (±S.E.M.) for each treatment group were calculated having a maximum of 10 animals and a minimum of 6 animals to be included.
Similar in vivo experiments were performed with the N87 gastric cancer cell line as described above. […] When the tumors reached a volume of 250 to 450 mm^3, the tumors were staged to ensure uniformity of the tumor mass among various treatment groups. The N87 gastric model was dosed intraveneously Q4dx4 with PBS vehicle, humanized anti-Notch ADCs, control huNeg-8.8 ADCs and cisplatin at the doses provided in Tables 16 and 17.

[2] = system: 37622A1 NSCLC xenografts; assay: 37622A1 NSCLC patient-derived xenografts with anti-Notch ADCs; format: in vivo, nude (Nu/Nu) female mice; details: for tumor volume (mm^3 ± SEM): 3 mg/kg Q4dx4
Protocol: as §1
The effects of anti-Notch ADCs were examined in immunodeficient mice on the in vivo growth of human tumor xenografts that were established from fragments of freshly resected 37622A1 NSCLC tumors obtained in accordance with appropriate consent procedures (Asterand). The 37622A1 NSCLC patient-derived xenografts were subcutaneously passaged in vivo as fragments from animal to animal in nude (Nu/Nu) female mice. When the tumors reached a volume of 150 to 300 mm^3, they were staged to ensure uniformity of the tumor size among various treatment groups. The 37622A1 NSCLC model was dosed intraveneously four times every four days (Q4dx4) with PBS vehicle, humanized anti-Notch ADCs, control huNeg-8.8 ADCs and cisplatin at the doses provided in Table 11.

B1: hu28-vc0101: humanized anti-Notch antibody hu28 conjugated to mcValCitPABC-#54 (conjugate)
heavy: EVQLVESGGGLVQPGGSLRLSCAASGFTFRDYGMTWVRQAPGKGLEWVAYISSGSNYIYYAEAVKGRFTISRDNAKNSLYLQMNSLRAEDTAVYYCARRGPFVLDAWGQGTLVTVSS[human IgG1 constant region left out]
light: DIQMTQSPSSLSASVGDRVTITCKASQSINRYLHWYQQKPGKAPKLLIYNANGLQTGVPSRFSGSGSGTDFTLTISSLQPEDFATYYCLQHNTWPDTFGGGTKVEIKRTVAAPSVFIFPPSDEQLKSGTASVVCLLNNFYPREAKVQWKVDNALQSGNSQESVTEQDSKDSTYSLSSTLTLSKADYEKHKVYACEVTHQGLSSPVTKSFNRGEC
B1 was tested, and the “tumor volume (mm^3 ± SEM)” value ([1]; DAY 4) was 344 ± 14 mm^3, the “tumor volume (mm^3 ± SEM)” value ([1]; DAY 7) was 272 ± 7 mm^3 and the “tumor volume (mm^3 ± SEM)” value ([1]; DAY 11) was 152 ± 13 mm^3. For the same molecule, the “tumor volume (mm^3 ± SEM)” value ([1]; DAY 14) was 155 ± 13 mm^3, the “tumor volume (mm^3 ± SEM)” value ([1]; DAY 18) was 138 ± 11 mm^3 and the “tumor volume (mm^3 ± SEM)” value ([1]; DAY 21) was 110 ± 9 mm^3. The “tumor volume (mm^3 ± SEM)” value ([1]; DAY 26) was 69 ± 16 mm^3, the “tumor volume (mm^3 ± SEM)” value ([1]; DAY 29) was 50 ± 13 mm^3 and the “tumor volume (mm^3 ± SEM)” value ([1]; DAY 33) was 43 ± 14 mm^3. For the same molecule, the “tumor volume (mm^3 ± SEM)” value ([1]; DAY 36) was 52 ± 16 mm^3, the “tumor volume (mm^3 ± SEM)” value ([1]; DAY 39) was 45 ± 14 mm^3 and the “tumor volume (mm^3 ± SEM)” value ([1]; DAY 42) was 34 ± 15 mm^3. For the same molecule, the “tumor volume (mm^3 ± SEM)” value ([1]; DAY 47) was 25 ± 14 mm^3, the “tumor volume (mm^3 ± SEM)” value ([1]; DAY 53) was 29 ± 16 mm^3 and the “tumor volume (mm^3 ± SEM)” value ([1]; DAY 62) was 33 ± 18 mm^3. The “tumor volume (mm^3 ± SEM)” value ([1]; DAY 70) was 58 ± 30 mm^3, the “effect on growth of N87 gastric xenografts (in words)” value ([1]; humanized ADCs, Q4dx4, doses of Tables 16 and 17) was “inhibited growth of N87 gastric xenografts in a dose-dependent manner” and the “tumor volume (mm^3 ± SEM)” value ([2]; DAY 4) was 202 ± 16 mm^3. For the same molecule, the “tumor volume (mm^3 ± SEM)” value ([2]; DAY 7) was 202 ± 15 mm^3, the “tumor volume (mm^3 ± SEM)” value ([2]; DAY 11) was 130 ± 11 mm^3 and the “tumor volume (mm^3 ± SEM)” value ([2]; DAY 14) was 119 ± 11 mm^3. For the same molecule, the “tumor volume (mm^3 ± SEM)” value ([2]; DAY 18) was 71 ± 6 mm^3, the “tumor volume (mm^3 ± SEM)” value ([2]; DAY 21) was 55 ± 6 mm^3 and the “tumor volume (mm^3 ± SEM)” value ([2]; DAY 25) was 49 ± 6 mm^3. The “tumor volume (mm^3 ± SEM)” value ([2]; DAY 28) was 41 ± 7 mm^3, the “tumor volume (mm^3 ± SEM)” value ([2]; DAY 32) was 42 ± 13 mm^3 and the “tumor volume (mm^3 ± SEM)” value ([2]; DAY 35) was 42 ± 11 mm^3. The “tumor volume (mm^3 ± SEM)” value ([2]; DAY 39) was 62 ± 26 mm^3, the “tumor volume (mm^3 ± SEM)” value ([2]; DAY 42) was 75 ± 34 mm^3 and the “tumor volume (mm^3 ± SEM)” value ([2]; DAY 46) was 92 ± 44 mm^3. For the same molecule, the “tumor volume (mm^3 ± SEM)” value ([2]; DAY 49) was 120 ± 63 mm^3, the “tumor volume (mm^3 ± SEM)” value ([2]; DAY 53) was 144 ± 67 mm^3 and the “tumor volume (mm^3 ± SEM)” value ([2]; DAY 56) was 126 ± 51 mm^3. The “tumor volume (mm^3 ± SEM)” value ([2]; DAY 60) was 180 ± 85 mm^3, the “tumor volume (mm^3 ± SEM)” value ([2]; DAY 63) was 223 ± 111 mm^3 and the “tumor volume (mm^3 ± SEM)” value ([2]; DAY 67) was 296 ± 152 mm^3. The “tumor volume (mm^3 ± SEM)” value ([2]; DAY 70) was 312 ± 162 mm^3, the “tumor volume (mm^3 ± SEM)” value ([2]; DAY 74) was 331 ± 160 mm^3 and the “tumor volume (mm^3 ± SEM)” value ([2]; DAY 77) was 422 ± 210 mm^3. For the same molecule, the “tumor volume (mm^3 ± SEM)” value ([2]; DAY 81) was 510 ± 248 mm^3, the “tumor volume (mm^3 ± SEM)” value ([2]; DAY 84) was 622 ± 322 mm^3 and the “tumor volume (mm^3 ± SEM)” value ([2]; DAY −1) was 186 ± 13 mm^3. The “effect on growth of 37622A1 NSCLC xenografts (in words)” value ([2]; Q4dx4, doses of Table 11) was “inhibited growth of 37622A1 NSCLC xenografts”.
